Hit rate of the full screen: of about 340,000 compounds, about 12,000 (3.5%) were called active. This list was built around the results that the source calls inconclusive (neither active nor inactive); the mix of calls is not that of the screen. Calls follow the shape of the dose curve; as a rule, active = well fitted inhibition curve with a large enough effect; inconclusive = small, poorly fitted or top-dose-only effect, or another doubt; inactive = no such curve, though single readings can be large or run the other way. No potency is given beside an inconclusive call; the fits are too rough.
experiment: qHTS Assay for Inhibitors of Hepatitis C Virus (HCV); conditions: Huh7.5.1 HCVcc-Cre (HCVcc is cell-culture hepatitis C virus) infection, luciferase reporter, 44 h; activity change, negative = inhibition: at 41.8 µM (top of the series)
Outline: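 Infectious HCVcc-Cre (~0.5 moi) was added to cells just after compound, with cells seeded 4 h earlier at 1,000 per well. Luciferase activity after 44 h culture reported infection; substrate was incubated 15 min at room temperature before reading.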
% is scaled to controls: 0 for no effect and ±100 for the full control effect; potency is read from the fitted curve at half-maximal effect; tags tell the direction and shape of the fitted curve.

Row | Compound | Potency | activity change, negative = inhibition
1 | Cc1ccc(Nc2cc(C)c3ccc(O)cc3n2)cc1C | active: 10 µM | 
2 | O=S(=O)(Cc1ccccc1)C1CCCCC1O (stereo unspecified) | inactive | 
3 | O=C(NCCN1CCOCC1)c1ccc2c(c1)N(Cc1ccc(Cl)cc1)CCS2 | inactive | 
4 | Cc1occc1C(=O)Nc1ccc(S(=O)(=O)N2CCCC2)cc1 | inconclusive [inhibitor, single point] | 
5 | CN1CCN(CCCOc2ccc(-c3ccccc3)cc2)CC1 | active: 2.82 µM | 
6 | CCOC(=O)CSc1nc2ccccc2c(=O)n1CCN1CCOCC1 | inactive | 
7 | CCOC(=O)CCCNC(=O)CN1CCC(c2nc3ccccc3s2)CC1 | inconclusive [inhibitor, partial curve] | 
8 | O=C(Nc1cccc(NC(=O)c2ccccc2Cl)c1)c1ccco1 | inconclusive [inhibitor, partial curve] | 
9 | O=C(Nc1ccccc1N1CCCCC1)C1CCN(S(=O)(=O)c2cccc(C(F)(F)F)c2)CC1 | inconclusive [inhibitor, single point] | 
10 | Cc1cc(N2CCCC2=O)ccc1S(=O)(=O)NCCOc1ccccc1 | inconclusive [inhibitor, partial curve] | 
11 | Cc1nnsc1C(=O)Nc1ccc(S(=O)(=O)N2CCCCC2)cc1 | inconclusive [inhibitor, partial curve] | 
12 | COc1cccc(N2CCN(c3nc(-c4ccccc4C)cc(=O)[nH]3)CC2)c1 | inconclusive [inhibitor, single point] | 
13 | COc1ccc(-n2nc3c(N4CCC(C(=O)N5CCCCCC5)CC4)nnc(C)c3c2C)cc1 | active: 11.2 µM | 
14 | OC1(c2ccc(F)cc2)CSC(=Nc2cccnc2)N1Cc1ccco1 (stereo unspecified) | inconclusive [inhibitor, single point] | 
15 | COc1ccc(N2CC(O)(c3ccc(C)cc3)[N+]3=C2CCCC3)cc1 (stereo unspecified) | inactive | 
16 | CC(=O)N1N=C(c2ccc(Cl)cc2)CC1c1ccc([N+](=O)[O-])cc1 (stereo unspecified) | inconclusive [inhibitor, single point] | 
17 | COc1cccc(NC(=O)N2CCN(c3nc(-c4cccc(OC)c4)cs3)CC2)c1 | active: 11.2 µM | 
18 | Cn1c2ccccc2c(=O)c2c(=O)n(-c3ccccc3)c(C3CCCCC3)nc21 | inactive | 
19 | COCCc1ncc(CN2CCC(C(=O)Nc3cccc(-c4cscn4)c3)CC2)cn1 | inconclusive [inhibitor, partial curve, poor fit] | 
20 | CCc1c(C)nc2ncnn2c1N1CCC(C(=O)Nc2ccc(C)cc2)CC1 | inconclusive [inhibitor, partial curve] | 
21 | CCOC(=O)C(C)n1cnc2scc(-c3ccc(C)c(C)c3)c2c1=O (stereo unspecified) | inconclusive [inhibitor, single point] | 
22 | Cc1nc2ccc(NC(=O)c3ccc(C)c(S(=O)(=O)N4CCOCC4)c3)cc2s1 | active: 10 µM | 
23 | COc1ccccc1NC(=S)NCc1ccc(S(N)(=O)=O)cc1 | inactive | 

Row | Compound | Potency | activity change, negative = inhibition
24 | CCC(=O)N1CCc2cc(S(=O)(=O)CCC(=O)N3CCN(c4ccc(C(C)=O)cc4)CC3)ccc21 | inconclusive [inhibitor, single point] | 
25 | Cc1ccnc(N=Cc2nc(-c3ccccc3Br)oc2O)c1 | inactive | 
26 | COC(=O)c1ccc(NC(=O)c2cn(-c3ccccc3)nc2-c2ccncc2)cc1 | inconclusive [inhibitor, single point] | 
27 | Cc1cc(C)c2cc(C(=O)N3CCc4ccccc4C3)[nH]c2c1 | inconclusive [inhibitor, full curve] | 
28 | O=C(CSCc1ccccc1)Nc1cccc(C(=O)Nc2ccc(C(=O)O)cc2)c1 | inactive | 
29 | Nc1ccc2nc(CN3CCOCC3)[nH]c2c1 | inactive | 
30 | CN(C)S(=O)(=O)c1ccc(N2CCN(S(=O)(=O)c3ccc(F)cc3)CC2)c(Cl)c1 | inconclusive [inhibitor, single point] | 
31 | Cc1nn(-c2ccccc2)c(Cl)c1C(=O)Nc1ccccc1 | inconclusive [inhibitor, single point] | 
32 | Cc1ccc(N2C(=O)CC(Cc3ccc(Cl)cc3)C2=O)cc1 (stereo unspecified) | inactive | 
33 | CCOc1ccc(-c2nc(CSc3nncs3)cs2)cc1OC | inconclusive [inhibitor, single point] | 
34 | O=C(COc1ccccc1)Nc1ccc(N2CCCCC2)cc1 |  | inconclusive: -104% [inhibitor]
35 | COc1cccc(CNc2nc(C(F)(F)F)nc3ccccc23)c1 | active: 5.62 µM | 
36 | Cc1ccc(NC(=O)CSCc2c(C)noc2C)cc1C | inconclusive [inhibitor, single point] | 
37 | CCCn1c(SCC(=O)Nc2cccc(S(=O)(=O)NC3=NCCCCC3)c2)nc2ccccc2c1=O | inactive | 
38 | CN(C)c1cccc(C(=O)Nc2ccc3nc4n(c(=O)c3c2)CCCCC4)c1 | inconclusive [inhibitor, single point] | 
39 | Cc1noc(C)c1CSCC(=O)N(C)CC(=O)Nc1ccc(Cl)c(Cl)c1 | inconclusive [inhibitor, single point] | 
40 | Oc1ccccc1C1=NN(c2ccccc2)C(c2ccccc2)C1 (stereo unspecified) | inconclusive [inhibitor, single point] | 
41 | CCOCCn1ccc2c(OCC(=O)Nc3cc(OC)ccc3OC)cccc2c1=O | active: 8.91 µM | 
42 | CCOC(=O)c1cnc2c(-c3ccccc3)cnn2c1N | inconclusive [inhibitor, single point] | 
43 | O=C(Cc1ccc(NC(=O)C2CCN(C(=O)C3CCCC3)CC2)cc1)Nc1cccc(C(=O)N2CCCCC2)c1 | inconclusive [inhibitor, partial curve, poor fit] | 
44 | COc1ccc(OC)c(-c2nn(-c3ccccc3)cc2C(=O)N2CCc3ccccc3C2)c1 | inconclusive [inhibitor, single point] | 
45 | Cc1ccc(CNC(=O)c2ccc(N3CCC4(CC3)CC(c3ccccc3)=NO4)c(NC(=O)c3cccc(C)c3)c2)cc1 | inactive | 
46 | COCCNCCCOc1ccc(C(C)(C)c2ccccc2)cc1 | inconclusive [inhibitor, single point] | 
